# Results from PubChem BioAssay AID603 (National Center for Advancing Translational Sciences (NCATS), 2007).
# Hit rate of the full screen: of about 71,000 compounds, about 180 (0.25%) were called active. This list was built around the results that the source calls inconclusive (neither active nor inactive); the mix of calls is not that of the screen. Calls come from the whole dose curve; as a rule, active = well fitted curve in the direction sought with a large enough effect; inconclusive = small, poorly fitted or top-dose-only effect; inactive = flat fitted curve, though single readings scatter. Where the call is inconclusive, the potency comes from a doubtful curve fit. Starred links: 1 amine or outer side, 2 acyl side, 3 side chain; linkers in the order of their positions; H or OH if unused. Positions of bridges follow the written chain, without caps; N, C: chain ends. Non-standard residues stand in square brackets, D forms with d. Residues, ends and D or L forms follow the SMILES beside them. Chains are numbered I, II in the order given. Actinocin(9to1) = Cc1c2oc3c(C)ccc(C(=O)[*:1])c3nc-2c(C(=O)[*:2])c(N)c1=O; NMeV = CN[C@H](C(=O)O)C(C)C; Sar = CNCC(=O)O
# System: DNA polymerase III holoenzyme (E. coli)
# Experiment: qHTS Assay for Inhibitors of DNA Polymerase III Holoenzyme System
# Conditions: reconstituted DNA polymerase III holoenzyme replication, biochemical; series mostly up to 57.1 µM
# Method: NIH Molecular Libraries Screening Centers Network [MLSCN]
# NIH Chemical Genomics Center [NCGC]
# Assay Provider: Charles McHenry, University of Colorado
# E. coli DNA polymerase III holoenzyme complex was assayed for DNA production by fluorescent detection of the double-stranded DNA product with PicoGreen dye. The holoenzyme complex was reconstituted from the following purified protein components: DNA Polymerase III, beta subunit processivity factor, SSB single-stranded DNA binding protein, and Primase. Single-stranded, circular M13Gori was used as a substrate with dNTPs and NTPs also supplied to the substrate reagent. Compounds from the NCGC collection were incubated with the holoenzyme mixture for 15 min at room temperature to allow binding to occur, and then the reaction was started by the addition of substrate. After 30 min incubation at room temperature, PicoGreen solution containing EDTA was added to stop the reaction and to visualize the double-stranded DNA produced. Reaction progress was measured in a ViewLux CCD imager in fluorescence intensity mode by using 480 nm excitation and 540 nm emission filter set.
# NCGC Assay Protocol Summary:
# Buffer. 50 mM Hepes-KOH, pH 7.5, 5 % Glycerol, 0.02% NP40, 30 mM potassium;
# glutamate, 1.5 mM Magnesium Acetate, 16 uM TCEP.
# Buffer in columns 3 and 4 as negative control (no enzyme).
# Substrate solution: 5 uM each dATP, dGTP, dCTP and TTP, 50 uM each GTP, CTP, UTP and 200 uM ATP, 1.4 nM M13gori (final concentrations).
# Enzyme: 154 nM SSB, 2 nM Primase, 1 nM Beta, 0.35 nM Pol III (final concentrations).
# PicoGreen/EDTA: 10 mM Tris-HCl, 10 mM EDTA, 5 uM PicoGreen (final concentrations).
# Control titration: ChemBridge 5805060 (from 10 mM, then 1:2, in duplicate) was pin-transferred to upper half of column 2.
# Three uL of holoenzyme mixture were dispensed to 1536-well Greiner black solid bottom plates. Compounds and controls (23 nL) were transferred via Kalypsys PinTool. The plates were incubated for 15 min at room temperature, and then 1 uL of substrate solution was added to start the reaction. After room temperature incubation for 35 minutes, 1 uL of PicoGreen solution was added to each well and the plates were read 480 nm excitation and 540 nm emission using ViewLux (Perkin-Elmer) High-throughput CCD imager and fluorescence protocol settings.
# Keywords: NIH Roadmap, MLSCN, MLI, MLSMR, qHTS, NCGC, DNA Polymerase III, DNAPol3, DNAPoly3, DNA replication targets
# % is set by controls: 0 for no effect and ±100 for the full control effect.
Structure (SMILES),Potency,"activity change, negative = inhibition"
Cc1nn(-c2ccccc2)c(C)c1C(=O)OCC(=O)NCc1ccco1,inconclusive: 6.31 µM,–
Cc1ccc(/C=C/S(=O)(=O)N2CCC(C(=O)O)CC2)cc1,inconclusive: 6.31 µM,–
CC[C@H](c1ccccc1)c1cc(C(C)(C)C)cc(C(C)(C)C)c1O,inconclusive: 2.51 µM,–
CCn1c(SCC(=O)O)nnc1-c1ccccc1,inconclusive: 6.31 µM,–
Brc1ccc(-c2nn3c(-c4ccco4)nnc3s2)o1,active: 25.1 µM,–
CCc1ccccc1NC(=O)C(C#N)Cc1cccnc1 (stereo unspecified),inconclusive: 6.31 µM,–
Cc1cccc(Nc2nn3c(=O)c4ccccc4nc3s2)c1,active: 3.16 µM,–
CCOc1ccc(C(C)=O)cc1N1C(=O)C2C3C=CC(C3)C2C1=O (stereo unspecified),inconclusive: 39.8 µM,–
Cn1c(C(=O)NCCCN2CCCCCC2)cc2c(=O)n(C)c3ccccc3c21,active: 7.94 µM,–
c1ccc(Cn2c(-c3ccco3)nc3nc4ccccc4nc32)cc1,inactive,–
Cc1cc(=O)n2[nH]c(C)c(-c3ccc(Cl)cc3)c2n1,active: 20 µM,–
N[C@@H](CCCCO)C(=O)O,–,inactive: -9.1% [at 11.4 µM]
CCN1CCN(C(c2ccc(OC)c(OC)c2)c2nnnn2C(C)(C)C)CC1 (stereo unspecified),inconclusive: 6.31 µM,–
CCOCCN1CCN(c2c(C)c(C)nc3cc(-c4cc(OC)cc(OC)c4)nn23)CC1,inconclusive: 5.01 µM,–
CCN(CC)CCOc1c(Br)ccc2c1sc1nc3n(c(=O)c12)CCC3,inconclusive: 31.6 µM,–
O=C(OCCNc1ncc(C(F)(F)F)cc1Cl)c1ccc(S(=O)(=O)N2CCOCC2)cc1,inconclusive: 6.31 µM,–
Cc1cc(=O)oc2cc(OCC(=O)N3CCc4ccccc4C3)ccc12,inconclusive: 6.31 µM,–
CC1CCCC(C)N1Cc1cn2ccccc2n1 (stereo unspecified),inconclusive: 6.31 µM,–
O=C(c1cc2ncc(Br)cn2n1)N1CCN(C(=O)c2ccco2)CC1,active: 25.1 µM,–
"Cc1c2oc3c(C)ccc(C(=O)N[C@@H]4C(=O)N[C@H](C(C)C)C(=O)N5CCC[C@H]5C(=O)N(C)CC(=O)N(C)[C@@H](C(C)C)C(=O)O[C@@H]4C)c3nc-2c(C(=O)N[C@@H]2C(=O)N[C@H](C(C)C)C(=O)N3CCC[C@H]3C(=O)N(C)CC(=O)N(C)[C@@H](C(C)C)C(=O)O[C@@H]2C)c(N)c1=O (I: T[dV]P[Sar][NMeV] / II: T[dV]P[Sar][NMeV]; ester I:1-I:C, II:1-II:C; linker I:N-II:N via Actinocin(9to1))",active: 0.02 µM,–
Cc1ccc(C(=O)Nc2c(C)n(C)n(-c3ccccc3)c2=O)cc1S(=O)(=O)N1CCOCC1,inconclusive: 6.31 µM,–
